Hit rate of the full screen: of about 310,000 compounds, about 2,200 (0.71%) showed an effect of 50% or more. Effects have a minus sign here. The list shows a part of the results.

Sequence of human ether-à-go-go-related gene (hERG) potassium channel (Q12809 whole entry, looked up): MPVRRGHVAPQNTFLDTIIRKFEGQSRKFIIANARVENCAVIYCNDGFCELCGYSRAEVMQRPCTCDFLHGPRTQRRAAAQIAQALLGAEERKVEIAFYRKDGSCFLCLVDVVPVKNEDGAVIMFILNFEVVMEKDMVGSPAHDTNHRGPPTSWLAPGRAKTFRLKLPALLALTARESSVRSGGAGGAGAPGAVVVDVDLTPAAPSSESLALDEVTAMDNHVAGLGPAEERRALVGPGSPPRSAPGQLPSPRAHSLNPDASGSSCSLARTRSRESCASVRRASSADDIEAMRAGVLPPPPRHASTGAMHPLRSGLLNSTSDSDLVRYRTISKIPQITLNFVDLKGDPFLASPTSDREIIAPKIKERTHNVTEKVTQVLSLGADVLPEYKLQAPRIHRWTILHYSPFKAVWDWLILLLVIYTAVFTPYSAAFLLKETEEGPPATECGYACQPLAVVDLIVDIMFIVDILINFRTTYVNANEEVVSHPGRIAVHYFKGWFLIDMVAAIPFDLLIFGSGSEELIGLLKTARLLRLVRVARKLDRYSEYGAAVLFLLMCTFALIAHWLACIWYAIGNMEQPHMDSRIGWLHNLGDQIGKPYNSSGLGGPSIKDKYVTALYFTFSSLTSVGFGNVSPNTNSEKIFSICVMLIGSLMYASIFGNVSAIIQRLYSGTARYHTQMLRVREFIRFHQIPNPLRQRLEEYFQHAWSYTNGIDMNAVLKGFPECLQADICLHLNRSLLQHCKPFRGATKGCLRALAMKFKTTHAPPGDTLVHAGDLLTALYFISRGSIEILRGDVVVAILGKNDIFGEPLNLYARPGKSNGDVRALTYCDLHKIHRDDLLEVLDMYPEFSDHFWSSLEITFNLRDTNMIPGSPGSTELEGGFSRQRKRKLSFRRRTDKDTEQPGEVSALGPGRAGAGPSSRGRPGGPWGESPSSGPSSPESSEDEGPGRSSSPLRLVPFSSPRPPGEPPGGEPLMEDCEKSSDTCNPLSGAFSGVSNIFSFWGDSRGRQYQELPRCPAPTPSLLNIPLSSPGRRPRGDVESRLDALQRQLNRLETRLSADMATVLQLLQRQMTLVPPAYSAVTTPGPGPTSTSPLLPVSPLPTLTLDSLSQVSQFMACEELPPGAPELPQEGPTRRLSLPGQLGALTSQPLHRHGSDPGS

The assay has as its target human ether-à-go-go-related gene (hERG) potassium channel (human, UniProt Q12809). As to the kind of experiment: primary screen, population patch clamp on CHO cells stably expressing hERG.
Consider `CCC(=O)N1CCCc2cc(S(=O)(=O)NCc3cccs3)ccc21`, for which the “hERG current change (%, negative = inhibition) at 1uM” value turned out to be 9.42%. For the molecule `O=C(Nc1ccccc1)O/N=C1\CCCCC1c1ccc([N+](=O)[O-])cc1[N+](=O)[O-]` (stereo not shown), the “hERG current change (%, negative = inhibition) at 1uM” value is given as -11.9%.

`Cc1ccc(-c2nnn(CC(=O)NCc3ccccc3)n2)c(-n2cnnn2)c1`: the “hERG current change (%, negative = inhibition) at 1uM” value was -6.6%. For `COc1ccc(-n2nc(C(=O)NCC(=O)NCCc3ccc(OC)c(OC)c3)c3ccccc3c2=O)cc1` the value was 12.7%; for `Cc1ccc2nc(SCC(=O)NCc3ccc(F)cc3)nc(=O)n2c1`, -6.2%; for `CNC(=O)c1[nH]nc2c1CCc1ccccc1-2`, 9.24%. As for `COc1cccc(-c2nc(CS(=O)(=O)CC(=O)NCCCN3CCc4ccccc4C3)c(C)o2)c1`, the “hERG current change (%, negative = inhibition) at 1uM” value is given as -56.3%.

For the molecule `N#Cc1ccc(S(=O)(=O)N2CCN(Cc3cccs3)CC2)cc1`, the “hERG current change (%, negative = inhibition) at 1uM” value was -9.64%. For `Cc1ccc(CNC(=O)[C@H](C)NC(=O)C2CCN(C(=O)[C@@H](N)CC(C)C)CC2)cc1` the value was 6.77%; for `Cl.OCCN(CCO)CC(O)COc1ccc(C23CC4CC(CC(C4)C2)C3)cc1` (stereo not shown), 2.27%.

In the case of `CCOC(=O)c1cnc(-c2cccc(OC)c2)[nH]c1=O`, the “hERG current change (%, negative = inhibition) at 1uM” value is reported as 1.79%. Take `CCN(CC)C(=O)Cn1nc(-c2ccccc2O)nc1SCC(=O)Nc1ccc(OC)cc1`: the “hERG current change (%, negative = inhibition) at 1uM” value is given as -12.1%. With `O=C(CSc1ncnc2ccccc12)NCCCO`, the “hERG current change (%, negative = inhibition) at 1uM” value was 1.04%.

Turning to `O=C(NC(Cc1ccc(O)cc1)C(=O)O)c1ccc2c(c1)OCO2` (stereo not shown), the “hERG current change (%, negative = inhibition) at 1uM” value is 6.27%. For `CCOC(=O)CNc1c(-c2ccccc2)nc2ccc(Cl)cn12` the value was -27.6%. For `CC(C)(C)OC(=O)N1CCN(C(=O)c2nc[nH]c2C(=O)N2CCN(C(=O)OC(C)(C)C)CC2)CC1` the value was 18.4%; for `Cc1nnc(N2C(=O)C(=O)/C(=C(/O)c3ccc4c(c3)CC(C)O4)C2c2ccccc2F)s1` (stereo not shown), 16.8%. `Cc1nc(C)c(C(=O)OCC(=O)N2CCN(c3ccccc3)CC2)s1`: the “hERG current change (%, negative = inhibition) at 1uM” value was determined as 6.34%.

Take `CCCCN(C)C(=O)c1cn(CC)c2nc(C)ccc2c1=O`: the “hERG current change (%, negative = inhibition) at 1uM” value is recorded as -0.182%. For `N#CN=C1SCCS1`, the “hERG current change (%, negative = inhibition) at 1uM” value amounted to 15.1%. As for `COc1c2ccoc2nc2c(OC)c(OCC(OC(C)=O)C(C)(C)O)ccc12` (stereo not shown), the “hERG current change (%, negative = inhibition) at 1uM” value is reported as 15.3%. For `CCN1C(=O)c2ccccc2S(=O)(=O)c2ccc(C(=O)NCC(OC)OC)cc21` the value was 11.2%. For `[N-]=[N+]=CC(=O)C(c1ccccc1)(c1ccccc1)c1ccccc1` the value was 18.4%; for `Cc1ccc(OCC(=O)NC(=S)Nc2ccc(S(=O)(=O)Nc3cc(C)on3)cc2)c(Br)c1`, 11.3%; for `O=C(NC1CCCCCCC1)c1cc(-c2ccccn2)nc2ccccc12`, 18.4%. On to `Nc1cc(C(F)(F)F)ccc1-n1cccc1`, for which the “hERG current change (%, negative = inhibition) at 1uM” value amounted to 10.9%. For `CC1(C)CC(=O)C=C(NC2CCCC(O)C2)C1` (stereo not shown) the value was 12.2%. Regarding `O=C(CN1C(=O)CCC1=O)Nc1ccc(S(=O)(=O)N2CCOCC2)cc1`, the “hERG current change (%, negative = inhibition) at 1uM” value is 7.37%. Regarding `Cc1ccc(Nc2cc(=O)oc3ccccc23)c(C)c1`, the “hERG current change (%, negative = inhibition) at 1uM” value came out at 3.93%.

In the case of `CC(=O)Nc1ccc(S(=O)(=O)N2CCN(c3ccc([N+](=O)[O-])c(NCCN4CCOCC4)c3)CC2)cc1`, the “hERG current change (%, negative = inhibition) at 1uM” value is recorded as -1.34%. For `O=C(Cc1ccccc1)Nc1nccs1` the value was 3.82%; for `COC(=O)c1c(-n2c(C)cc(C=O)c2C)sc2c1CCCC2`, 9.3%; for `CCOC(=O)C1=C(C)NC(C)=C(C(=O)OCC)C1c1nc2ccccc2[nH]1`, 12.9%. For `O=c1[nH]cnc2ccc([N+](=O)[O-])cc12`, the “hERG current change (%, negative = inhibition) at 1uM” value is on record as 2.51%.

In the case of `OCCSc1nc(-c2cccnc2)nc2ccccc12`, the “hERG current change (%, negative = inhibition) at 1uM” value was 6.99%. As to `O=C(O)C=C1C2CC3CC(C2)CC1C3`, the “hERG current change (%, negative = inhibition) at 1uM” value turned out to be 0.291%.

Consider `COc1ccc(-c2cc(-c3cccs3)nc3sc(C#N)c(N)c23)cc1`, for which the “hERG current change (%, negative = inhibition) at 1uM” value is 8.56%. For `Cc1cc(C)c(S(=O)(=O)c2cc(F)ccc2C)c(Cl)n1` the value was 13%; for `COc1ccc(/C(N)=N/OC(=O)CCCc2ccccc2)cc1OC`, 2.51%. For `O=P(c1ccccc1)(c1ccccc1)c1nc2ccccc2s1`, the “hERG current change (%, negative = inhibition) at 1uM” value is listed as -4.05%. For `Br.COc1ccc(/C(O)=C/Sc2nnc(Cc3ccccc3)o2)cc1` the value was 2.53%; for `C/C(N)=C(/C#N)C(=O)COC(=O)CSc1ccccc1`, 15.5%; for `CC(C)(C)OC(=O)N1CCC[C@H]1c1nnc(SCc2ccccc2Cl)o1`, 13.3%. For `NC(=O)Cn1nc([N+](=O)[O-])nc1Oc1ccccc1C(=O)N1CCOCC1` the value was 5.66%; for `Cc1cnc(C(=O)OC(C)C(=O)NCc2ccccc2)cn1` (stereo not shown), 6.71%; for `CC(C(=O)N1CCN(Cc2ccc3c(c2)OCO3)CC1)c1ccc([N+](=O)[O-])cc1` (stereo not shown), -7.34%.

Turning to `CCOc1ccc(C(C)=O)cc1CN1C(=O)c2ccccc2S1(=O)=O`, the “hERG current change (%, negative = inhibition) at 1uM” value is reported as 11.7%. Turning to `Cc1ccc(C(=O)Nc2ccc(Cl)cn2)cc1`, the “hERG current change (%, negative = inhibition) at 1uM” value came to 8.03%.

As for `Cc1ccc(C)c(NC(=S)NCCCN2CCOCC2)c1`, the “hERG current change (%, negative = inhibition) at 1uM” value amounted to 4.62%. For `Cc1cc(NC(=O)CSc2cn(C)c3ccccc23)no1`, the “hERG current change (%, negative = inhibition) at 1uM” value worked out at 10.4%. For `O=C(NC1CCCCC1)C(c1cccs1)N(CC1CCCO1)C(=O)c1csnn1` (stereo not shown) the value was 8.37%; for `O=C(O)c1ccc2[nH]c3c(c2c1)CSCC3`, 10.8%; for `COc1ccc(-c2nc(Cc3ccc(Cl)cc3)no2)cc1OC`, 10.7%. For `c1ccc(NCC2OCc3ccccc3CO2)cc1` the value was -0.23%. Take `Cc1cc(NC(=O)c2cnn3cccnc23)no1`: the “hERG current change (%, negative = inhibition) at 1uM” value was 10.7%. Regarding `COC(CNC(=O)CCc1c(C)nc2c(-c3ccccc3)c(C)nn2c1C)OC`, the “hERG current change (%, negative = inhibition) at 1uM” value is 4%. For `CC(C)Oc1ccc(N2CC(C(=O)Nc3ccccn3)CC2=O)cc1` (stereo not shown) the value was -11.9%.

On to `CCOC(=O)COc1ccc2nsnc2c1`, for which the “hERG current change (%, negative = inhibition) at 1uM” value turned out to be 16.4%.

Take `Cc1nc(SCC(=O)Nc2cccc(Cl)c2)n[nH]1`: the “hERG current change (%, negative = inhibition) at 1uM” value is recorded as 3.54%. For `COC(=O)c1ccc(CSc2nnc(Nc3ccc(OC)cc3)s2)o1` the value was -16.3%; for `Cc1c(C(=O)O)oc2c1C(=O)CC(C)(C)C2`, 6.09%; for `Cc1ccc2nc(N(CCN3CCOCC3)C(=O)CCS(=O)(=O)c3ccccc3)sc2c1.Cl`, 10.7%.

For the molecule `Cc1nnc(SCC(=O)Nc2sc3c(c2C#N)CCCC3)[nH]c1=O`, the “hERG current change (%, negative = inhibition) at 1uM” value is 0.963%. Regarding `CCOc1nc2c(c(-c3cccs3)c1C#N)Cc1ccccc1-2`, the “hERG current change (%, negative = inhibition) at 1uM” value turned out to be 11.2%. For `S=C(Nc1ccccc1)N1CCn2c(nc3ccccc32)C1` the value was 4.54%. `Cc1noc(C)c1S(=O)(=O)N1CCCC(C(=O)N2CCN(C3CCCCC3)CC2)C1` (stereo not shown): the “hERG current change (%, negative = inhibition) at 1uM” value is listed as -4.43%. For `CC(=O)OC1(C(F)(F)F)Oc2ccccc2NC1=O` (stereo not shown) the value was 9.52%. Take `CCCCC[C@H]1CN(CCCC)C(=O)[C@@H]1CC(=O)NCc1ccccc1`: the “hERG current change (%, negative = inhibition) at 1uM” value is reported as -25.7%. As to `CCOc1ccc(NC(=O)CSc2nccn2Cc2ccco2)cc1`, the “hERG current change (%, negative = inhibition) at 1uM” value is on record as -0.291%.

On to `O=C(CSc1nc2ccccc2nc1SCC(=O)N1CCCCC1)N1CCCCC1`, for which the “hERG current change (%, negative = inhibition) at 1uM” value is given as 15.6%. For `CCN(CC)CCNC(=O)c1cc2c(=O)n(C)c3ccccc3c2n1C` the value was 7.79%; for `O=C(CSc1nc(-c2ccc(F)cc2)cs1)N1CCOCC1`, -6.82%.

With `CCOC(=O)N1CCN(C(=O)CSCc2ccccc2Cl)CC1`, the “hERG current change (%, negative = inhibition) at 1uM” value is 7.53%. For `Cl.Nc1ccc2nc[nH]c2c1` the value was 17.2%.

As to `c1ccc(-c2noc(CN3CCCC(OCc4ccccn4)C3)n2)cc1` (stereo not shown), the “hERG current change (%, negative = inhibition) at 1uM” value worked out at 5.58%. For `COc1cccc(OCc2ccc(C(=O)NCC3CCCO3)cc2)c1` (stereo not shown) the value was 2.86%. For `CCC(C)Nc1c2c(nc3c(-c4ccccc4)c(C)nn13)CCC2` (stereo not shown) the value was -1.9%; for `C=CCc1c(C)nc(SCc2nc3ccccc3c(=O)[nH]2)[nH]c1=O`, 15.5%; for `CCOC(=O)c1cn(C2CC2)c2c(F)c(F)c(F)cc2c1=O`, 10.3%. For `COc1cc(CNn2c(C)n[nH]c2=S)cc(Cl)c1OCc1ccccc1` the value was 3.88%; for `CC(=O)c1ccc(N2CCN(S(=O)(=O)c3c(C)[nH]c(C)c3C(=O)N3CCCC3)CC2)cc1`, 2.12%.

In the case of `COC(=O)CSc1nnc(-c2ccc(S(=O)(=O)NCc3ccccc3Cl)cc2)o1`, the “hERG current change (%, negative = inhibition) at 1uM” value is given as -0.0977%. With `CC(C(=O)NC1C(=O)N2C(C(=O)O)=C(CSc3nnnn3C)CSC12)n1cc(Cl)cn1` (stereo not shown), the “hERG current change (%, negative = inhibition) at 1uM” value amounted to 11.9%. For `COc1ccc(N2CCN(C(=O)COC(=O)c3ccccc3OCc3ccc(F)cc3)CC2)cc1` the value was 10.8%. For `CCOc1ccc(OCC(=O)NCCS(=O)(=O)N2CCN(c3ccc(F)cc3)CC2)cc1` the value was 9.86%.

In the case of `CCOC(=O)c1[nH]c(C)c(C(=O)NC(C)CC)c1C` (stereo not shown), the “hERG current change (%, negative = inhibition) at 1uM” value came out at 9.79%. For `CC(C)(C)C(=O)[C@@H]1[C@@H]2C(=O)N(c3ccc4c(c3)OCCO4)C(=O)[C@@H]2C2c3ccccc3C=CN21` (stereo partly shown) the value was -8.57%. With `Nc1ccc(Oc2ccc3c(c2)C(=O)N(CC2CCCO2)C3=O)cc1` (stereo not shown), the “hERG current change (%, negative = inhibition) at 1uM” value is recorded as 12%. `O=C(NCCN1C(=O)S/C(=C/c2cccnc2)C1=O)c1cccs1`: the “hERG current change (%, negative = inhibition) at 1uM” value is reported as 15%. For `Cc1cccc(NC(=O)CSc2nnc(CSc3nc(C)cc(C)n3)o2)c1` the value was 15.5%.

On to `COc1cc(-c2nnc(COC(=O)c3cc(C)no3)o2)cc(OC)c1OC`, for which the “hERG current change (%, negative = inhibition) at 1uM” value is recorded as 2.63%.

Values taken from article PMC4336329 (PLoS ONE, 2015).
